Drawing on the RNAGym collection of RNA variant scans (doi:10.7554/elife.90254), this text covers self-cleavage for 20 variants.

To fix the notation:
B1: LINE1-full (parent)
chain: UACGUAGGUGGUUUUCCCCUGAUAGUGCUAAGGGGGCCUGGAAGUUUGGACUGGGCAGAGCUCAACACAGCGUGGCAAAGUGGCUGUGGCUAGACUGCCUCUCUGGAUUCCUCGUCACUCAGCAGGGCAUCUCUGAGAGAAAUGCC

Read counts are not given, so values of variants with three or more changes are uncertain.

In this data set the parent is B1. The data set can be described thus: self-cleavage, relative activity (ratio to wild type); higher = more cleavage; in vitro, sequencing; the parent is a self-cleaving ribozyme.
Turning to UACGUAGGUGGUUCUCCCCUGAUAGUGCUAAGGGGGCCUGGAAGUUUAGACUGGGCAGAGCUCAACACAGCGUGGCAAAGUGGCUGUGGCUGGACUGCCUCUCUGGGUUCCUCGUCACCCAGCAGGGCAUCUCUGAGAGAAAUGCC, the self-cleavage was 0.

In the case of UACGUAGGUGGUUCUCCCCUGAUAGUGCUAAGGUGGCCUGGAAGUUUGGACUGGGCAGAGCUCAACACAGCGUGGCAAAGUGGCUGUGGCUAGACUGCCUCUCUGGAUUCCUCGUCACUCAGCUGGGCAUCUCUGAGAGAAAUGCC, the self-cleavage worked out at 1.35. With UACGUAGGUGGUUCUCCCCUGAUAGUGCUAAGGGUGCCUGGAAGUUUGGACUGGGCAGAGCUCAACACAGCGUGGCAAAGUGGCAGUGGCUAGACUGCCUCUCUGGAUUCCUCGUCACUCAGCAGGGCAUCUCUGAGAGAAAUGCC the figure was 0.21. With UACGUAGGUGGUUCUCCCCUGAUAGUGCUAAGGGGCCCUGGAAGUUUGGACUGGGCAGAGCUCAACACAGCGUGGCAGAGUGGCUGUGGCUAGACUGCCUCUCUGGAUUCCUCGUCACUCAGCAGGGCAUCUCUGAGAGGAAUGCC the figure was 1.19. With UACGUAGGUGGUUCUCCCCUGAUAGUGCUAAGGUGGCCUGGAAGUUUGGACUGGGCAGAGCUCAACACAGCGUGGCAAGGUGGCUGUGGCUAGACUGCCUCUCUGGAUCCCUCGCCACUCAGCAGGGCAUCUCUGAGAGAAAUGCC, the self-cleavage came to 0. Then UACGUAGGUGGUUCUCCCCUGAUAGUGCUAAGGGGGCCUUGAAGUUUGGACUGGGCAGAGCUUAACACAGCGUGGCAAAGUGGCUGUGGCUAGACUGCCUCUCUGGAUUCCUCGUCACUCAGCAGGGCAUCUCUGAGAGAAAUGCC, with 0.31; and UACGUAGGUGGUUCUCCCCUGAUAGUGCUAAGAGGGCCUGGAGGUUUGGACUGGGCAGAGCCCAACACAGCGUGGCAAAGUGGCUGUGGCUAGACUGCCUCUCUGGACUCCUCGUCACUCAGCAGGGCAUCUCUGAGAGAAAUGCC, with 0.1. For the variant UACGUAGGUGGUUCUCCCCUGAUAGUGCUAAGGGGGCCUCGAAGUUUGGACUGGGCAGAGCUCAACACAGCGUGGCAAAGAGGCUGUGGCUAGACUGCCUCUCUGGAUUCCUCGUCACUCAGCAGGGCAUCUCUGAGAGAAAUGCC, the self-cleavage turned out to be 2. With UACGUAGGUGGUUCUCCCCUGAUAGUGCUAAGGUGGCCUGGAAGUUUGGACUGGGCAGAGCUCAACACAGCGUGGCAAAGUGGCUGUGGCUAGACUGCCUCUCUGGAUUCCACGUCACUCAGCAGGGCAUCUCUGAGAGAAAUGCC the figure was 1.04. Take UACGUAGGUGGUUCUCCCCUGAUAGUGCUAAGGGGCCCUGGAAGUUUGGACUGGGCAGAGCUCAACACAGCGUGGCAAAGUGGCUGUGACUAGACUGCCUCUCUGGAUUCCUCGUCACUCAGCAGGGCAUCUCUGAGAGAAGUGCC: the self-cleavage worked out at 0.05.

As for UACGUAGGUGGUUCUCCCCUGAUAGUGCUAACGGGGCCUGGAAGUUUGGACUGGGCUGAGCUCAACACAGCGUGGCAAAGUGGCUGUGGCUAGACUGCCUCUCUGGAUUCCUCGUCACUCAGCAGGGCAUCUCUGAAAGAAAUGCC, the self-cleavage is 0.26. Regarding UACGUAGGUGGUUCUCCCCUGAUAGUGCUAAGGGGACCUGGAAGUUUGGACUGGGCAGAGCUCAACACAGCGUGGCAAAGUGGCUGUGGCUAGCCUGCCUCUCUGGAUUCCUCGUCGCUCAGCAGGGCAUCUCUGAGAGAAAUGCC, the self-cleavage was determined as 0.07. Then UACGUAGGUGGUUCUCCCCUGAUAGUGCUAAGGGAGCCUGGAAGUUAGGACUGGGCAGAGCUCAACACAGCGUGGCAAGGUGGCUGUGGCUAGACUGCCUCUCUGGAUUCCUCGUCACUCAGCAGGGCAUCUCUGAGAGAAAUGCC, with 0.66; and UACGUAGGUGGUUCUCCCCUGAUAGUGCUAAGGGGGCCUUGAAGUUCGGACUGGGCAGAGCUCAACACAGCGUGGCAAAGUGGCUGUGGCUAGACUGCCUCUCUGGAUUCCUCGCCACUCAGCAGGGCAUCUCUGAGUGAAAUGCC, with 0; and UACGUAGGUGGUUCUCCCCUGAUAGUGCUAAGGGGGCCUGAAAGUCUGGACUGGGCAGAGCUCAACACAGCGUGGCAAAGUGGCUGUGGCUAGACUGCCUCUCUGGAUUCCUCGUCACUCAGCAGGGCAUCUCUGAGAGAAAUGCC, with 1.25.

As to UACGUAGGUGGUUCUCCCCUGAUAGUGCUAAAGGGGCCUGGAAGUUUGGACUGGGCAGAGCUCAACACAGCGUGGCAGAGUGGCUGUGGCUAGACUGCCUCUCUGGAUUCCUCGUCACUCAGCAGGGCAUCUCUGAGUGAAAUGCC, the self-cleavage is 2.4. On to UACGUAGGUGGUUCUCCCCUGAUAGUGCUAAGGGGGCCUGGAAAUUUGGACUGGGCAGAGCUCAACACAGCGUGGCAAAGUGGCUGUGGCUAGACUGCCUCUCUGGAUUCCUCGUCACUCAGCAGGGCAUCUCUGGGAGGAAUGCC, for which the self-cleavage was 0.84. With UACGUAGGUGGUUCUCCCCUGAUAGUGCUAAUGGGGCCUGGAAGUUUGGACUGGGCAGAGCUCAACACAGCGUGGCAAAGUGGCUCUGGCUAGGCUGCCUCUCUGGAUUCCUCGUCACUCAGCAGGACAUCUCUGAGAGAAAUGCC the figure was 0.04; with UACGUAGGUGGUUCUCCCCUGAUAGUGCUAAGUGGGCCUGGAAGUUUGGACUGGGCAGAGCUCAACACAGCGUGGCAAAGUGGCUGUGGCUAGACUGCCUCUCUGGAUUCCUCGUCACUCAGCAGGGCAUCUCUGAGAGAAAAGCC, 0.78. With UACGUAGGUGGUUCUCCCCUGAUAGUGCUAAGGGGGCCUGGAAUUUAGGACUGGGCAGAGCUCAACACAGCGUGGCAAAGUGGCUGUGGCUAGACUGCCUCUCUGGAUUCCUCGUCACUCAGCAGGGCAUCUCUGAGAGAAAUGCC the figure was 0.68.
